# Substitutions are numbered along the chain they refer to; changes in the protein carry UniProt numbers. Some of the results follow.
# T1: RBFOX1 RRM (Homo sapiens, UniProt Q9NWB1 109-208)
# T1 sequence: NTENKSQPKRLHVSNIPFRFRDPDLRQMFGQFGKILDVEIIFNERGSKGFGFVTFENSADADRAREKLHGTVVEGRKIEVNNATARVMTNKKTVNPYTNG
# B1: AUACCCC (DNA:RNA)
# RNA: GGGAGACCGGAAUUCAGAUUGUCCAUACCCCUUAAAUCCCGUCGUAGCCACCA
# DNA 1: CAATCTGAATTCCGGTCTCCC
# DNA 2: TGGTGGCTACGACGGGATT
# B2: CUACUAU (DNA:RNA)
# RNA: B1 RNA with A25C, C29U, C30A, C31U
# DNA 1: CAATCTGAATTCCGGTCTCCC
# DNA 2: TGGTGGCTACGACGGGATT
# B3: ACUAUUG (DNA:RNA)
# RNA: B1 RNA with U26C, A27U, C28A, C29U, C30U, C31G
# DNA 1: CAATCTGAATTCCGGTCTCCC
# DNA 2: TGGTGGCTACGACGGGATT
# B4: UGCAACA (DNA:RNA)
# RNA: B1 RNA with A25U, U26G, A27C, C28A, C29A, C31A
# DNA 1: CAATCTGAATTCCGGTCTCCC
# DNA 2: TGGTGGCTACGACGGGATT
# B5: GAGACCA (DNA:RNA)
# RNA: B1 RNA with A25G, U26A, A27G, C28A, C31A
# DNA 1: CAATCTGAATTCCGGTCTCCC
# DNA 2: TGGTGGCTACGACGGGATT
# B6: GGGGCCA (DNA:RNA)
# RNA: B1 RNA with A25G, U26G, A27G, C28G, C31A
# DNA 1: CAATCTGAATTCCGGTCTCCC
# DNA 2: TGGTGGCTACGACGGGATT
# B7: AGCAACA (DNA:RNA)
# RNA: B1 RNA with U26G, A27C, C28A, C29A, C31A
# DNA 1: CAATCTGAATTCCGGTCTCCC
# DNA 2: TGGTGGCTACGACGGGATT
# B8: GUGUGGA (DNA:RNA)
# RNA: B1 RNA with A25G, A27G, C28U, C29G, C30G, C31A
# DNA 1: CAATCTGAATTCCGGTCTCCC
# DNA 2: TGGTGGCTACGACGGGATT
# B9: UAGGAGG (DNA:RNA)
# RNA: GGGAGACCGGAAUUCAGAUUGUCCUAGGAGGUUAAAUCCCGUCGUAGCCACCA
# DNA 1: CAATCTGAATTCCGGTCTCCC
# DNA 2: TGGTGGCTACGACGGGATT
# B10: GCUGAGA (DNA:RNA)
# RNA: B9 RNA with U25G, A26C, G27U, G31A
# DNA 1: CAATCTGAATTCCGGTCTCCC
# DNA 2: TGGTGGCTACGACGGGATT
# B11: UCCCAAU (DNA:RNA)
# RNA: B9 RNA with A26C, G27C, G28C, G30A, G31U
# DNA 1: CAATCTGAATTCCGGTCTCCC
# DNA 2: TGGTGGCTACGACGGGATT
# B12: AUUCUAC (DNA:RNA)
# RNA: B1 RNA with A27U, C29U, C30A
# DNA 1: CAATCTGAATTCCGGTCTCCC
# DNA 2: TGGTGGCTACGACGGGATT
# B13: UCGAAUU (DNA:RNA)
# RNA: B9 RNA with A26C, G28A, G30U, G31U
# DNA 1: CAATCTGAATTCCGGTCTCCC
# DNA 2: TGGTGGCTACGACGGGATT
# B14: AGACGGC (DNA:RNA)
# RNA: B1 RNA with U26G, C29G, C30G
# DNA 1: CAATCTGAATTCCGGTCTCCC
# DNA 2: TGGTGGCTACGACGGGATT
# B15: GCAAACU (DNA:RNA)
# RNA: B1 RNA with A25G, U26C, C28A, C29A, C31U
# DNA 1: CAATCTGAATTCCGGTCTCCC
# DNA 2: TGGTGGCTACGACGGGATT
# B16: GACGCGG (DNA:RNA)
# RNA: B9 RNA with U25G, G27C, A29C
# DNA 1: CAATCTGAATTCCGGTCTCCC
# DNA 2: TGGTGGCTACGACGGGATT
# B17: GCCCUGA (DNA:RNA)
# RNA: B1 RNA with A25G, U26C, A27C, C29U, C30G, C31A
# DNA 1: CAATCTGAATTCCGGTCTCCC
# DNA 2: TGGTGGCTACGACGGGATT
# B18: CCAUCGC (DNA:RNA)
# RNA: B1 RNA with A25C, U26C, C28U, C30G
# DNA 1: CAATCTGAATTCCGGTCTCCC
# DNA 2: TGGTGGCTACGACGGGATT
# B19: AAGUCGC (DNA:RNA)
# RNA: B1 RNA with U26A, A27G, C28U, C30G
# DNA 1: CAATCTGAATTCCGGTCTCCC
# DNA 2: TGGTGGCTACGACGGGATT
# B20: CGCUCGC (DNA:RNA)
# RNA: B1 RNA with A25C, U26G, A27C, C28U, C30G
# DNA 1: CAATCTGAATTCCGGTCTCCC
# DNA 2: TGGTGGCTACGACGGGATT
# B21: UCUUUAU (DNA:RNA)
# RNA: B9 RNA with A26C, G27U, G28U, A29U, G30A, G31U
# DNA 1: CAATCTGAATTCCGGTCTCCC
# DNA 2: TGGTGGCTACGACGGGATT
# B22: GUACUGU (DNA:RNA)
# RNA: B1 RNA with A25G, C29U, C30G, C31U
# DNA 1: CAATCTGAATTCCGGTCTCCC
# DNA 2: TGGTGGCTACGACGGGATT
# B23: CUGCCCG (DNA:RNA)
# RNA: B1 RNA with A25C, A27G, C31G
# DNA 1: CAATCTGAATTCCGGTCTCCC
# DNA 2: TGGTGGCTACGACGGGATT
# B24: UCGUGCC (DNA:RNA)
# RNA: B1 RNA with A25U, U26C, A27G, C28U, C29G
# DNA 1: CAATCTGAATTCCGGTCTCCC
# DNA 2: TGGTGGCTACGACGGGATT
# B25: CGUAUAU (DNA:RNA)
# RNA: GGGAGACCGGAAUUCAGAUUGUCCCGUAUAUUUAAAUCCCGUCGUAGCCACCA
# DNA 1: CAATCTGAATTCCGGTCTCCC
# DNA 2: TGGTGGCTACGACGGGATT
# B26: UCUGCUU (DNA:RNA)
# RNA: B25 RNA with C25U, G26C, A28G, U29C, A30U
# DNA 1: CAATCTGAATTCCGGTCTCCC
# DNA 2: TGGTGGCTACGACGGGATT
# B27: UCGACGU (DNA:RNA)
# RNA: B9 RNA with A26C, G28A, A29C, G31U
# DNA 1: CAATCTGAATTCCGGTCTCCC
# DNA 2: TGGTGGCTACGACGGGATT
# B28: UUACUAA (DNA:RNA)
# RNA: B1 RNA with A25U, C29U, C30A, C31A
# DNA 1: CAATCTGAATTCCGGTCTCCC
# DNA 2: TGGTGGCTACGACGGGATT
# B29: CGCAUCC (DNA:RNA)
# RNA: B25 RNA with U27C, A30C, U31C
# DNA 1: CAATCTGAATTCCGGTCTCCC
# DNA 2: TGGTGGCTACGACGGGATT
# B30: AAUCGGC (DNA:RNA)
# RNA: B1 RNA with U26A, A27U, C29G, C30G
# DNA 1: CAATCTGAATTCCGGTCTCCC
# DNA 2: TGGTGGCTACGACGGGATT
# B31: GUGACUG (DNA:RNA)
# RNA: B1 RNA with A25G, A27G, C28A, C30U, C31G
# DNA 1: CAATCTGAATTCCGGTCTCCC
# DNA 2: TGGTGGCTACGACGGGATT
# Target: T1, RBFOX1 RRM
# Assay: EMSA; HiTS-Eq, 1 nM pool, 10 min; buffer printed only for the single-RNA assays: 10 mM Tris pH 7.5, 150 mM NaCl, 3.4 mM EDTA, 0.001% NP-40, 30 C
# Details: tags: His6 N-terminal (pET28a); label: 5' 32P
# How it was run: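 Purified RbFox RRM, wild type or mutant, was incubated for 10 min in 50 µL with 1 nM of a 5′-radiolabelled RNA pool carrying 7 randomized nucleotides, whose flanks were annealed to DNA oligonucleotides, over a series of increasing protein concentrations. Unbound RNA was resolved on 8% native PAGE, cut out, reverse-transcribed, barcoded by PCR and sequenced on an Illumina HiSeq 2500. Relative association constants were derived from changes in read counts for each RNA species versus the control reaction and normalised to the cognate motif.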
row,Binder,binding signal
1,B1,0.000891 KA relative to UGCAUGU
2,B2,0.0035 KA relative to UGCAUGU
3,B3,0.0094 KA relative to UGCAUGU
4,B4,0.00988 KA relative to UGCAUGU
5,B5,0.00587 KA relative to UGCAUGU
6,B6,0.0283 KA relative to UGCAUGU
7,B7,0.00318 KA relative to UGCAUGU
8,B8,0.00854 KA relative to UGCAUGU
9,B9,0.00616 KA relative to UGCAUGU
10,B10,0.0165 KA relative to UGCAUGU
11,B11,0.00226 KA relative to UGCAUGU
12,B12,0.000861 KA relative to UGCAUGU
13,B13,0.00946 KA relative to UGCAUGU
14,B14,0.0105 KA relative to UGCAUGU
15,B15,0.00432 KA relative to UGCAUGU
16,B16,0.0147 KA relative to UGCAUGU

row,Binder,binding signal
1,B17,0.0189 KA relative to UGCAUGU
2,B18,0.00309 KA relative to UGCAUGU
3,B19,0.00852 KA relative to UGCAUGU
4,B20,0.0204 KA relative to UGCAUGU
5,B21,0.00512 KA relative to UGCAUGU
6,B22,0.0156 KA relative to UGCAUGU
7,B23,0.0183 KA relative to UGCAUGU
8,B24,0.0166 KA relative to UGCAUGU
9,B25,0.00367 KA relative to UGCAUGU
10,B26,0.0204 KA relative to UGCAUGU
11,B27,0.0129 KA relative to UGCAUGU
12,B28,0.00327 KA relative to UGCAUGU
13,B29,0.0179 KA relative to UGCAUGU
14,B30,0.00741 KA relative to UGCAUGU
15,B31,0.0231 KA relative to UGCAUGU

# Source: PMC9911399, “Two distinct binding modes provide the RNA-binding protein RbFox with extraordinary sequence specificity”
